Assay results as given in the supplement of paper PMC10369915.
This is one part of the list. No stated cut-off is given here; in the data, active = 3.2 or more and inactive = the rest. The signal is at background level for most entries.

Legend:
Assay in all cases: enrichment score (SH2-bound / input frequency) (ratio); bacterial display of known human phosphotyrosine sites (pTyr-Var adds point mutants) read by sequencing; higher = stronger binding; tyrosines were phosphorylated by kinases first
Conditions in all cases: peptide library: Human pTyr
[1] = biological target: SHP2 C-SH2 domain E139D
[2] = biological target: SHP2 C-SH2 domain wild-type
[3] = biological target: SHP2 N-SH2 domain L43F
[4] = biological target: SHP2 N-SH2 domain T42A
[5] = biological target: SHP2 N-SH2 domain T52S
[6] = biological target: SHP2 N-SH2 domain wild-type
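Further: displayed peptides selected on beads carrying the immobilized SH2 domain, with library peptides lacking any tyrosine serving as negative controls.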

Binder | enrichment score [1] | enrichment score [2] | enrichment score [3] | enrichment score [4] | enrichment score [5] | enrichment score [6]
DEPEAEPYDESVEAK [MK11_HUMAN_323] | inactive: 1.28 | inactive: 1.16 | inactive: 1.24 | inactive: 1.31 | inactive: 1.29 | inactive: 1.09
IMRNDREYDSGDTDE [NOL8_HUMAN_376] | inactive: 1.51 | inactive: 1.13 | inactive: 1.24 | inactive: 1.05 | inactive: 1.2 | inactive: 1.4
EVADKAAYLTSLNSA [MYH4_HUMAN_389] | inactive: 0.731 | inactive: 0.614 | inactive: 0.668 | inactive: 0.66 | inactive: 0.618 | inactive: 0.548
IEFVNQAYGSFKEAK [NOS2_HUMAN_151_YA] | inactive: 0.585 | inactive: 0.638 | inactive: 0.839 | inactive: 0.786 | inactive: 0.733 | inactive: 0.924
FGMSRDIYSTDYYRV [NTRK1_HUMAN_676] | inactive: 0.844 | inactive: 0.892 | inactive: 0.642 | inactive: 0.776 | inactive: 0.655 | inactive: 0.744
SEDRDLLYSIDAARS [ANLN_HUMAN_671_YA] | inactive: 0.62 | inactive: 0.47 | inactive: 0.624 | inactive: 0.558 | inactive: 0.569 | inactive: 0.517
GSSNGHVYEKLSSIE [NMDE2_HUMAN_1474] | inactive: 0.746 | inactive: 0.798 | inactive: 0.553 | inactive: 0.569 | inactive: 0.686 | inactive: 0.857
ATLLNENYVEDDDNM [NMT1_HUMAN_180_YA] | inactive: 1.35 | inactive: 1.06 | inactive: 1.11 | inactive: 1.11 | inactive: 1.32 | inactive: 1.08
YVHVNATYVNVKCVA [MET_HUMAN_1356] | inactive: 2.05 | inactive: 1.82 | inactive: 1.96 | inactive: 1.88 | inactive: 2.48 | inactive: 2.3
SGAWGPLYDEVQMGP [NPHN_HUMAN_1193] | inactive: 0.793 | inactive: 0.623 | inactive: 0.532 | inactive: 0.61 | inactive: 0.48 | inactive: 0.564
KEGLRDFYLDQFRTK [NMDE2_HUMAN_1133] | inactive: 0.996 | inactive: 0.758 | inactive: 0.71 | inactive: 0.904 | inactive: 1.1 | inactive: 0.942
ADFAPEDYSSFQHIR [NFATC1_HUMAN_371] | inactive: 0.769 | inactive: 0.632 | inactive: 0.676 | inactive: 0.6 | inactive: 0.519 | inactive: 0.84
KPFENGQYLDIYGIT [NEGR1_HUMAN_187] | inactive: 0.974 | inactive: 0.745 | inactive: 0.784 | inactive: 0.764 | inactive: 0.896 | inactive: 1.03
VAAHCGHYRVTKLLL [ANK2_HUMAN_378] | inactive: 2.26 | inactive: 2.33 | inactive: 2.28 | inactive: 2.51 | inactive: 2.65 | inactive: 3.04
GLRKTGSYGALAEIT [MYPT1_HUMAN_446] | inactive: 0.975 | inactive: 0.765 | inactive: 0.788 | inactive: 0.788 | inactive: 0.892 | inactive: 0.844
FGLARDMYDKEAASV [MET_HUMAN_1230_YA] | inactive: 0.589 | inactive: 0.713 | inactive: 0.627 | inactive: 0.861 | inactive: 0.625 | inactive: 0.85
SHQGPVIYAQLDHSG [MPZL1_HUMAN_241] | active: 4.5 | active: 7.84 | active: 19 | active: 17.3 | active: 12 | active: 5.11
FGLGSRAYPHFCAFA [NOS3_HUMAN_657] | inactive: 1.46 | inactive: 1.07 | inactive: 1.29 | inactive: 1.15 | inactive: 1.6 | inactive: 1.78

Binder | enrichment score [1] | enrichment score [2] | enrichment score [3] | enrichment score [4] | enrichment score [5] | enrichment score [6]
FQDSIFEYFNTAPLA [MRCKB_HUMAN_954] | inactive: 0.879 | inactive: 0.882 | inactive: 1.07 | inactive: 0.661 | inactive: 0.726 | inactive: 0.935
IRPRRCKYFDTNSEV [MIER1_HUMAN_155] | inactive: 0.677 | inactive: 0.809 | inactive: 0.866 | inactive: 1.56 | inactive: 0.93 | inactive: 1.05
APEEESAYVAGEKRQ [NSF1C_HUMAN_167] | inactive: 0.632 | inactive: 0.836 | inactive: 0.931 | inactive: 0.832 | inactive: 0.528 | inactive: 1.31
NQDDVGVYTCLVVNG [MYLK_HUMAN_231] | inactive: 1.47 | inactive: 1.28 | inactive: 1.46 | inactive: 1.35 | inactive: 1.3 | inactive: 1.24
YEDAGSHYLCLLKAR [MYLK_HUMAN_471] | inactive: 1.51 | inactive: 1.24 | inactive: 1.42 | inactive: 1.24 | inactive: 1.7 | inactive: 2.17
EVYQVTVYQAGESDT [MDM2_HUMAN_281] | inactive: 0.95 | inactive: 0.815 | inactive: 0.772 | inactive: 0.863 | inactive: 0.866 | inactive: 0.849
DDGTFGEYSDAEDHK [NRCAM_HUMAN_1225] | inactive: 0.913 | inactive: 0.767 | inactive: 1.01 | inactive: 0.864 | inactive: 0.9 | inactive: 0.958
NGGSSLSYTNPAVAA [MUC1_HUMAN_1243] | inactive: 0.786 | inactive: 0.629 | inactive: 0.648 | inactive: 0.739 | inactive: 0.751 | inactive: 0.682
SGLCSPSYVAVTPFS [MYC_HUMAN_74] | inactive: 1.23 | inactive: 0.98 | inactive: 1 | inactive: 0.911 | inactive: 1.13 | inactive: 1.2
DVASTDAYRVGGHTM [NTRK2_HUMAN_707_YA] | inactive: 0.597 | inactive: 0.511 | inactive: 0.614 | inactive: 0.47 | inactive: 0.572 | inactive: 0.535
VLEGKPIYVDCFGNL [ANK2_HUMAN_1382] | inactive: 1.14 | inactive: 1.15 | inactive: 1.39 | inactive: 1.52 | inactive: 1.74 | inactive: 1.16
TNFMMTPYVVTRYYR [MK09_HUMAN_185] | inactive: 1.7 | inactive: 1.29 | inactive: 1.41 | inactive: 0.928 | inactive: 1.08 | inactive: 1.51
DMADKEAYSVHNKTG [MET_HUMAN_1235_YA] | inactive: 1.04 | inactive: 0.674 | inactive: 0.756 | inactive: 0.719 | inactive: 0.724 | inactive: 0.711
DHVLPIDYYFPPQKT [ANDR_HUMAN_552] | inactive: 0.916 | inactive: 0.703 | inactive: 0.905 | inactive: 0.804 | inactive: 0.834 | inactive: 0.86
GSGADRIYDLNIPAF [NCK2_HUMAN_110] | inactive: 0.571 | inactive: 0.468 | inactive: 0.643 | inactive: 0.508 | inactive: 0.618 | inactive: 0.627
ARSAYSSYSAPVSSS [NFL_HUMAN_43] | inactive: 0.839 | inactive: 1.08 | inactive: 0.559 | inactive: 0.532 | inactive: 0.518 | inactive: 0.552
AGASEPKYYSQPILV [MYPC1_HUMAN_823] | inactive: 0.817 | inactive: 0.663 | inactive: 0.744 | inactive: 0.875 | inactive: 0.58 | inactive: 0.762
EASLEPGYPKHIKEL [MMP14_HUMAN_399] | inactive: 1.26 | inactive: 0.695 | inactive: 0.641 | inactive: 0.844 | inactive: 0.959 | inactive: 0.879
